# Laboratory results from the supplement of paper PMC10441789.
# Some of the results follow. Antibody binding of pooled human sera (four to six donors per pool; dilution not stated) to peptides of the Trypanosoma cruzi antigen TSSA on microarrays. Quantile-normalised fluorescence in arbitrary units, mean of duplicate arrays; higher = more binding. No active / inactive call. The uninfected pools are read here as the healthy donors of the same country. The strongest signals lie near the top of the scale (about 60,000).
# System: pooled sera of chronic Chagas disease patients, Argentina
# Assay: antibody binding signal (normalised fluorescence) (arbitrary fluorescence units); higher = stronger serum antibody binding to peptide
# Method: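 Microarray of 15-residue peptides over residues 30-55 of Trypanosoma cruzi TSSAII, each with 1 to 10 substitutions at naturally variable positions, probed with one serum pool per country.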
row,Sequence,antibody binding signal
1,GTDNKPATGGTPSPS,2360
2,GTDKKTATGGAPSPP,1110
3,KKPATGETPSPPGAS,9900
4,PSGTDKKPATGGTPS,4990
5,KPATGETPSQPGASS,27700
6,PPSGTENKAAAGETP,42400
7,GKENKAAAGGAPSPP,1080
8,GKDKKAAAGETPSQP,659
9,SGKENKPAAGGTPSQ,3290
10,PSGKENKAAAGEAPS,9290
11,SGKENKPATGGAPSQ,5100
12,TDKKAAAGEAPSPSG,647
13,KDNKTAAGGAPSQPG,516
14,KDKKAAAGGAPSPSG,221
15,GKENKTAAGEAPSPP,3260
16,SGKDKKPAAGGAPSQ,592
17,KDNKTATGETPSQPG,2350
18,TEKKPATGGAPSQSG,2670
19,KKTAAGGAPSPSGAS,209
20,GKDNKAAAGEAPSPP,2810

row,Sequence,antibody binding signal
1,PPSGKEKKPATGGTP,1570
2,GTDKKTAAGEAPSPP,210
3,GTEKKPATGGTPSQS,1150
4,STPPSGKDNKTAAGE,33900
5,GKEKKAAAGGAPSQP,605
6,TEKKTATGGTPSPSG,1020
7,TISTPPSGKDKKTAT,17900
8,PSGKDNKTATGETPS,1760
9,GKDKKAAAGGTPSQP,286
10,PSGKEKKTATGETPS,4160
11,PPSGKDNKAATGGAP,612
12,SGTENKAATGEAPSP,33500
13,STPPSGTDKKAAAGG,38200
14,GTEKKPAAGETPSQP,3020
15,DKKTATGEAPSQPGA,13700
16,GTDNKPAAGGAPSPP,3170
17,STPPSGKEKKAAAGG,13500
18,KEKKTATGGAPSQSG,736
19,GKEKKTATGGTPSPS,1220
20,DNKTAAGGAPSQSGA,443
